Results published in PubChem BioAssay AID485297 (National Center for Advancing Translational Sciences (NCATS), 2010).
Among all 320,000 compounds or so, about 9,100 (2.8%) were called active. Inconclusive means that the source gave no clear call. Such entries were picked first, then a sample of the others. Calls follow the shape of the dose curve; as a rule, active = well fitted activation curve with a large enough effect; inconclusive = small, poorly fitted or top-dose-only effect; inactive = no such curve, though single readings can be large or run the other way. Potencies of inconclusive entries are left out as doubtful fits.

test: qHTS Assay for Rab9 Promoter Activators; conditions: Huh7 Rab9 promoter-luciferase reporter, luminescence, 24 h; series mostly up to 9.22 µM; also: nearly all actives have a fitted effect of over 60% in size; as to activation, negative = inhibition: % of control where 0% means no effect
Method in brief: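 Luminescence read-out: Huh7 cells stably expressing Rab9-luciferase, treated 24 h with compound at 37 °C, then lysed with luciferase reagent for 10 min at ambient before reading.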
Potency is read from the fitted curve at half-maximal effect; tags tell the direction and shape of the fitted curve.

| Structure (SMILES) | Potency | activation, negative = inhibition |
| --- | --- | --- |
| CCc1ccc(NC(=S)N2CCN(C)CC2)cc1 | inconclusive [activator, partial curve] | – |
| Cn1cccc1C(=O)NNC(=O)c1ccccc1Br | inconclusive [activator, single point] | – |
| O=C(CSc1nnc(-c2ccccn2)o1)Nc1ccc(F)cc1 | inconclusive [activator, partial curve] | – |
| Cc1cccc(Cc2nnc(CCC(=O)N(CC3CC3)CC3CCCO3)o2)c1 (centres undefined) | inconclusive [activator, single point] | – |
| O=CNc1ccc(S(=O)(=O)NCc2ccccc2)cc1 | inactive | – |
| COC(=O)c1ccc(COc2ccc(CNCc3ccc(Cl)cc3)cc2)cc1 | inconclusive [activator, partial curve] | – |
| Cc1ccc(-c2nc3ccccc3c(=O)o2)cc1 | active: 3.16 µM | – |
| CCC(=O)c1ccc(N2CCN(C(=O)c3ccccc3F)CC2)c(F)c1 | inactive | – |
| CC1(C)C(=O)OC(/C=C/c2cccc([N+](=O)[O-])c2)C(C)(C)C1=O (centres undefined) | inactive | – |
| CCc1ccc(NC(=O)c2cnc3n(c2=O)CCS3)cc1 | active: 3.98 µM | – |
| CC(C)c1ccc(/C=C/c2ccc(=O)n(C)n2)cc1 | active: 1.78 µM | – |
| Cc1cc(C)nc(NC(=O)Nc2ccc(F)cc2F)n1 | inconclusive [activator, partial curve] | – |
| CC1CCc2nc(NC(=O)CN3CCOCC3)sc2C1 (centres undefined) | inconclusive [activator, single point] | – |
| Clc1ccc(-c2nsc(N3CCOCC3)n2)c(Cl)c1 | active: 1 µM | – |
| O=C1CC(N2CCN(C(c3ccccc3)c3ccccc3)CC2)C(=O)N1 (centres undefined) | inconclusive [activator, single point] | – |
| CC(=O)N1N=C(c2ccc3ccccc3c2)OC1(C)C | inactive | – |
| CCn1c(C)nc2c(C)[n+](CC(=O)c3ccc(Br)cc3)ccc21 | active: 1 µM | – |
| CCOC(=O)c1c(C)[nH]c(C(=O)COC(=O)CSC)c1C | inactive | – |
| Cc1nc2ccccn2c1C(=O)NNC(=S)Nc1ccccc1 | inactive | – |
| Cc1cc(C(=O)NNc2c(Cl)cccc2Cl)no1 | inactive | – |
| COc1ccc2c(=O)c(C(=O)NCCc3ccccc3)c[nH]c2c1 | inconclusive [activator, partial curve] | – |
| Cc1ccc(-n2cc(C(=O)c3ccccc3O)cn2)cc1 | inconclusive [activator, full curve] | – |
| CCOc1ccc(-c2nnc(-c3cccs3)o2)cc1OCC | inconclusive [activator, partial curve] | – |
| Cc1cccc(C)c1NC(=O)CN(c1ccccn1)S(=O)(=O)c1ccc(F)cc1 | inactive | – |
| Cc1cc(Br)ccc1OCc1nc(-c2cccnc2)no1 | inconclusive [activator, single point] | – |
| CCOc1ccc(N2C(=O)c3ccccc3C2O)cc1 (centres undefined) | inconclusive [activator, partial curve] | – |
| c1ccc(CSc2ncnc3c2cnn3-c2ccccc2)cc1 | inconclusive [activator, single point] | – |

| Structure (SMILES) | Potency | activation, negative = inhibition |
| --- | --- | --- |
| C[C@@H]1C[C@H]2[C@@H]3C[C@H](F)C4=CC(=O)C=C[C@]4(C)[C@@]3(F)[C@@H](O)C[C@]2(C)[C@@]1(O)C(=O)CO | inconclusive [activator, single point] | – |
| O=C(COc1ccccc1)Nc1nnc(-c2ccc3c(c2)CCCC3)o1 | inconclusive [activator, single point] | – |
| O=C1c2ccccc2C(=O)c2c1cccc2N1CCOCC1 | inconclusive [activator, single point] | – |
| CCc1ccc(C2c3[nH]c4ccccc4c3CCN2C(=O)c2cc(C)nn2C)cc1 (centres undefined) | inactive | – |
| COC(=O)c1ccc(N/C=C\C(=O)c2ccc3c(c2)OCO3)cc1 | inconclusive [activator, full curve, poor fit] | – |
| Nc1ccc(/C=C/c2ccc3ncccc3c2)cc1 | active: 0.282 µM | – |
| Cc1ccc(C(=O)Nc2ccc(OCc3ccccc3)cc2)cc1[N+](=O)[O-] | inactive | – |
| COc1ccccc1-c1noc(-c2ccccc2C(=O)Nc2cccnc2)n1 | inactive | – |
| Cn1cccc1CC(=O)N/N=C/C=C/c1ccccc1 | inconclusive [activator, single point] | – |
| CCOc1ccc(NC(=O)CCC(=O)NNC(=O)COc2ccc(C)cc2Br)cc1 | inconclusive [activator, single point] | – |
| CC(=O)C(/C=N/c1cc(-c2ccc(C)cc2)nn1-c1ccccc1)=C(\C)O | active: 3.98 µM | – |
| O=C(Nc1cccc(NC(=O)c2cccs2)c1)c1ccc(F)cc1 | – | inactive: -4.34% [at 1.84 µM] |
| Cc1nn(-c2ccccc2)c(C)c1CCC(=O)O | inconclusive [activator, single point] | – |
| COc1cc(/C=N/NC(=O)c2cccc(S(=O)(=O)N3CCCC3)c2)cc(OC)c1O | inactive | – |
| O=C(Cc1ccc(Br)cc1)c1ccc(O)cc1O | inconclusive [activator, partial curve] | – |
| O=C1NCCCC1C(=O)N/N=C/c1cc([N+](=O)[O-])ccc1O (centres undefined) | inconclusive [activator, single point] | – |
| C=CCOc1ccc(C(=O)Nc2ccc(OCC)cc2)cc1 | inconclusive [activator, partial curve] | – |
| COc1ccc(NC(=O)c2ccc3nc[nH]c3c2)cc1 | inconclusive [activator, partial curve] | – |
| CCN(CC(=O)Nc1c(F)cccc1F)C(=O)c1ccc(OCc2c(C)noc2C)cc1 | inactive | – |
| COCCNC(=O)C1CCN(Cc2cccc(OCc3ccccc3)c2)CC1 | inactive | – |
| COc1cccc2sc(NNC(=O)COc3ccccc3)nc12 | inactive | – |
| CC(=O)NS(=O)(=O)c1ccc(Nc2ccc([N+](=O)[O-])c3nonc23)cc1 | inactive | – |
| CCOc1ccc2nc(SCC)[nH]c2c1 | inconclusive [activator, single point] | – |
| COCCCN1C(=O)c2ccc(C(=O)NCCc3ccccc3)cc2C1=O | inconclusive [activator, partial curve] | – |
| O=c1[nH]c(SCc2ccc(Cl)cc2)nc2ccsc12 | inconclusive [activator, single point] | – |
| Cc1ccc(SC[C@H](CC(C)C)N2CCN(C)CCC2=O)cc1 | active: 3.55 µM | – |
| CCOc1cc(/C=C2/C(=N)N3C(=NC2=O)SN=C3S(=O)(=O)C(C)C)ccc1OC(=O)c1ccco1 | inactive | – |

| Structure (SMILES) | Potency | activation, negative = inhibition |
| --- | --- | --- |
| Cc1ccc(C(=O)Nc2nc(C)c(C(=O)N(C)C)s2)o1 | inconclusive [activator, partial curve] | – |
| COc1ccc(C(=O)Nc2ccc(C3CC3(Cl)Cl)cc2)cc1 (centres undefined) | inconclusive [activator, partial curve] | – |
| O=C(CSc1nc2ccccc2s1)N/N=C/c1ccc(C(=O)O)cc1 | inactive | – |
| CCN1C(=O)/C(=C\C=C2/C=CC=CN2CC)SC1=S | active: 1.41 µM | – |
| CC(C)NC(=S)N/N=C/c1ccc2c(c1)OCCO2 | inconclusive [activator, single point] | – |
| Cc1ccc(NC(=O)COc2ccc3c(c2)CCC3)nc1 | inconclusive [activator, partial curve] | – |
| Cc1ccccc1Cn1nnc(-c2ccc3c(c2)OCO3)n1 | inconclusive [activator, single point] | – |
| O=C(COc1ccc(Cl)cc1Cl)NC(=O)NC1CCCC1 | inconclusive [activator, partial curve] | – |
| O=C(Cc1cccs1)Nc1ccc(N2CCOCC2)cc1 | inconclusive [activator, partial curve] | – |
| COC(=O)c1sc(NC(=O)c2csc3c2CCCC3)nc1C | active: 3.98 µM | – |
| O=C(CSCc1ccccc1)Nc1ccc(S(=O)(=O)Nc2ncccn2)cc1 | inactive | – |
| O=c1cc(-c2ccc(O)cc2)oc2ccccc12 | inconclusive [activator, single point] | – |
| CN(CC(=O)Nc1ccc(Cl)c(S(=O)(=O)N(C)C)c1)Cc1ccccc1 | inconclusive [activator, single point] | – |
| COc1ccc(C(=O)O/N=C(\N)c2ccccc2)c(OC)c1 | inconclusive [activator, partial curve, poor fit] | – |
| COc1ccc(C(=O)C(OC(=O)c2ccccc2Cl)c2ccccc2)cc1 (centres undefined) | active: 3.98 µM | – |
| CCCCn1c(N)c(N(Cc2ccccc2OC)C(=O)c2cc(CC)c(C)s2)c(=O)[nH]c1=O | inactive | – |
| COc1ccc(C(=O)Nc2cc(C)on2)c(OC)c1 | active: 3.16 µM | – |
| Cc1nnsc1-c1nnc(SCC(=O)c2ccc(F)cc2)n1C1CC1 | inactive | – |
| O=C(O)c1cc(/C=C/c2ccc(N3CCOCC3)cc2)nc2ccccc12 | inconclusive [activator, partial curve] | – |
| CCOc1cccc(CN2CCC(N3CCC(C(=O)NCC4CCCO4)CC3)CC2)c1 (centres undefined) | inactive | – |
| COCCN(C(=O)Cc1cccs1)C(C(=O)NCc1ccc(OC)cc1)c1ccc(C)cc1 (centres undefined) | inactive | – |
| Cc1ccc(-n2nc3ccc(NC(=O)/C=C/c4ccco4)cc3n2)cc1 | inconclusive [activator, full curve] | – |
| CC(C)=CC(=O)Nc1nnc(C(C)C)s1 | active: 2.51 µM | – |
| Cc1ccc(-c2nc3ccccc3[nH]2)cc1N | active: 1.41 µM | – |
| Cc1cc(N)n(-c2ccc3ccccc3c2)n1 | inconclusive [activator, partial curve] | – |
